Assay results from the supplement of paper PMC3334620.
Whole data set: some 33,000 sequences, median “E-score (-0.5 to 0.5)” near -0.012, cut for the highest 2% near 0.29. This is one part of the list.

target: T1, Ybr033w (UniProt P38073); test: PBM E-score (8-mer binding enrichment) (E-score (-0.5 to 0.5)); higher = stronger / more preferred TF binding; most listed sequences are background and not binding sites; conditions: protein concentration: 200 nM; construct: GST-full length
T1 sequence: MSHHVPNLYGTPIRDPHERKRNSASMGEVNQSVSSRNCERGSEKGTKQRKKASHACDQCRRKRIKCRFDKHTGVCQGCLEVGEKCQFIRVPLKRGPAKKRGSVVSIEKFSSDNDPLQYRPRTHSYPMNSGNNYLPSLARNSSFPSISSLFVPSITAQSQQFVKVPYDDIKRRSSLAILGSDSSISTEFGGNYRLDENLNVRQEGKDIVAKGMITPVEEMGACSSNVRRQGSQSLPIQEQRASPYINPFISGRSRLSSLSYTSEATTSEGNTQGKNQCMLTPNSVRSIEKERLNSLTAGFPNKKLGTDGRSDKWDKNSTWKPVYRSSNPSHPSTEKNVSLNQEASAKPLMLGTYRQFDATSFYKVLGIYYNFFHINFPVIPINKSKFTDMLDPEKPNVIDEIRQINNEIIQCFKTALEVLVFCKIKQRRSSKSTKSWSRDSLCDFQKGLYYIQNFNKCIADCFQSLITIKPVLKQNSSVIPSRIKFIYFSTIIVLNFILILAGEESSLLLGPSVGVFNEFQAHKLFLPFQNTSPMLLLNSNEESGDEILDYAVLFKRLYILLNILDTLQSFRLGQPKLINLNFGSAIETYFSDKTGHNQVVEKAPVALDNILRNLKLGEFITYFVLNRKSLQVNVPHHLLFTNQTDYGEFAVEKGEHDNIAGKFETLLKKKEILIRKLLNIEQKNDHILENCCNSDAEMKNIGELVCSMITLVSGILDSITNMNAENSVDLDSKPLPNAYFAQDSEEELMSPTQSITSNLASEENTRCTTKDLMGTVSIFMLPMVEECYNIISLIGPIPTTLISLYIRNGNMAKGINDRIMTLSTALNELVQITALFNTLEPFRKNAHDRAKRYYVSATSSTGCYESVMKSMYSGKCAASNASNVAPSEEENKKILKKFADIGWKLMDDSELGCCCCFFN
Procedure, shortened: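 For each ungapped eight-base word taken together with its reverse complement, the Universal PBM Analysis Suite assigned an E-score. Binding data came from GST-tagged yeast transcription factors, applied at about 100-200 nM, on universal all-10-mer Agilent arrays made double-stranded by primer extension. Fluorescent anti-GST marked bound protein, and scans were normalised with masliner.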

Sequence | PBM E-score
AAAGGAGG | -0.206
CGAGGGCC | -0.267
ATGATCAT | 0.0795
ACGAACGT | -0.0234
CATAGACG | -0.163
AGGCCGGA | -0.0543
GATACACC | 0.209
CGGAAACA | 0.0951
GAAGTCTC | -0.188
GCGCGAGA | 0.108
CTTCTTTC | -0.035
TAGACCTA | -0.0235
CGTCAAGA | -0.0428
CTCGGATA | 0.108
GCTTAAGC | 0.18
CGTAAACC | -0.0609
TGAGGTAA | 0.0106
ATGGGGTC | -0.186
ACGTCACT | -0.0698
AGCATAGA | 0.0717
ATGCCCGA | -0.106
GATTTGGC | -0.212
CTCACTTC | -0.204
ATCGCAAT | 0.0818
CCTCTCGC | -0.297

Sequence | PBM E-score
TAATATTA | 0.342
CGGCGCAA | -0.148
CCACATAA | 0.0924
AACAGTGT | 0.0147
AGCCACAT | 0.15
CGCGACAA | 0.12
CCCATTTA | 0.104
CGACGATC | -0.0378
CACAAGCC | -0.0902
GCTATGCA | -0.0627
AGTGGAGG | -0.114
ACATGCGG | -0.0894
ATCGGAGG | 0.0321
ATTCTCAC | 0.137
ACGCCGTG | -0.0819
ACTGTAAT | 0.0614
GTACAGGA | 0.127
ATCTACTC | 0.127
CTAGAGCA | -0.171
AGAGACGC | -0.0537
CGGTTGAA | 0.0164
AGCTACTA | 0.0725
CACTTGAC | -0.0994
GACTTATC | -0.152
AAGAGCCG | -0.0657

Sequence | PBM E-score
GGGCACGA | -0.142
CGGTCCAC | -0.275
GCCCCGGC | -0.352
CATGTTAA | 0.218
GAGGAATA | 0.222
ATTAGGCC | 0.0094
ATCCCGAG | 0.0239
GGGCGACA | -0.322
AATCATCG | 0.0255
GCCGCGAC | -0.162
TAGAATGA | 0.246
GTACTACA | 0.114
ACTTTTTG | 0.196
ACCAGTCC | -0.222
ACCCAGCC | -0.28
CATGATCC | 0.0454
GCGCCGAA | -0.0138
TAGTTAAA | 0.296
GGCGGTCA | -0.284
AAAGCCGA | -0.189
CCTACCTA | -0.0809
CCGTGGGA | -0.155
CAGAGCCC | -0.18
GTCGAGAC | -0.01
TTGCCCAA | 0.0565

Sequence | PBM E-score
CGTCGTAG | -0.187
CGAGCGAA | 0.0224
CTGAACTA | 0.037
AGTCCGTG | -0.282
CCTTGACC | -0.177
GGCGAGAA | 0.17
GAGGGTCC | -0.364
AACTCATG | 0.182
CGTATGTA | 0.108
TACTCACA | 0.158
ACGGCACG | -0.0907
AATTGCAG | -0.0339
CACATAAA | 0.239
ATTGATAC | 0.251
CAACACTC | 0.0698
GGTGTGAC | -0.193
GCCGTGTA | -0.122
TAGTCAGA | -0.0781
CGCCCATA | -0.116
GAGTCAAA | -0.0673
AGCTAAGA | 0.00641
ACTGTTGC | 0.00948
GCCGACCC | -0.296
ACGTCATC | -0.148
CATTCTCG | 0.0112

Sequence | PBM E-score
CCATGGGC | -0.165
CCCCGCAC | -0.179
AATGTAAC | 0.119
GGAGAGGA | -0.238
AGCAAATC | 0.126
TAAATGTA | 0.192
GAGGGTTA | -0.0439
CCAATCCG | 0.0149
AGGGTCAC | -0.281
ATCTAGAC | 0.107
CTCGAAGA | -0.228
CATCTCAA | 0.119
GACTTCCA | -0.0265
GTCTGAGA | -0.163
AAATCTCA | 0.145
CAGAATAC | 0.0363
TGACCGCA | -0.102
CGCTCAGC | -0.135
CGAGTGAA | 0.033
CGTCTGCA | -0.115
GAAATGTA | 0.141
TGAATTCA | 0.102
AGATGTTA | 0.0254
GGACATCA | 0.00371
AAAAAGTT | 0.314

Sequence | PBM E-score
AGATATGA | 0.137
AAACGCCT | -0.175
CAGATACG | -0.134
GATCGTGA | -0.0504
CCACGTCA | -0.104
AAAGGAGA | 0.00524
AAGGATAA | 0.219
GCTTGACC | -0.149
GGAAGCGA | -0.072
ACCGGCTA | -0.125
ATGTCCGG | -0.131
AGAAACGC | -0.0719
GGCAGGTA | -0.169
CCAAGGTA | -0.00263
AAAGACTC | 0.0554
CCATGCCG | -0.107
GTGTTAAA | 0.121
ATATTAGA | 0.273
ATATCGTA | 0.0551
GTTAGGTA | 0.163
AAGGACAG | -0.0937
CTGCGAAC | -0.182
AATGGAGG | -0.111
AGATATAC | 0.137
ATAGAGCC | -0.14

Sequence | PBM E-score
ACAGGAGG | -0.256
GCGACGGA | -0.00479
ACAACTAC | 0.126
GTAGTAAA | 0.188
CTATCAAG | 0.0801
GGGGCCTA | -0.389
GTCTTCAC | -0.185
ATAATTAC | 0.353
ACGATAAT | 0.163
ACATAATG | 0.214
GTCTTCCA | -0.0731
GCACGTAA | -0.0247
CGCTATAG | -0.0982
ATCCGCAG | 0.155
CTGTGGTC | -0.109
AGCATTAA | 0.0878
AAACCCCA | -0.0215
ACGCGCGC | -0.0247
CTATCAGA | -0.0376
AGGCTGGG | -0.165
ACCTCTAA | -0.0182
CGATATTC | 0.123
